The chains are these.
B1: UniProt A0EPZ9; numbered along this chain (parent)
chain: MDWQKSLTLIVALTLSRGIGLKNDLPWKLKSDMMFFSRVTSGLLVTRSTGQMNVVLMGRKTWESLPAHSRPLKNRINVVISRQEVLDLGGGAYHARSLDDALALLSQIYDSTSKIQLNRVFVIGGGELCKAAMEHSRLNRIIATVIHNEVDCDVFFPIDFRSSQSCLPWRKQDHSVLEAWVGSKVPQGKINENGFIYEFEMWIRDI

In this data set the parent is B1. The experiment in a line: selection coefficient against synonymous wild-type codons (log2 per generation); higher = faster growth than wild type. Conditions: with Saccharomyces cerevisiae carrying the variant on a plasmid. The method, then:
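Pooled growth of yeast carrying single-residue variants of P. jirovecii dihydrofolate reductase (own DFR1 gene intact), two passages at 30 °C, three cultures, sequenced before and after. Codons with under 15 starting reads are left out; codons of one change are averaged.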

± gives the standard deviation of the averaged measurements. Growth of baker's yeast expressing single-residue variants of Pneumocystis jirovecii dihydrofolate reductase in 8.8 or 44 µM methotrexate (about 75% and 90% inhibition of the wild type). Selection coefficient per generation; 0 = like wild type, above 0 = less sensitive, below 0 = more sensitive or loss of function. No active / inactive call per row; the paper calls resistant above 0.220 (8.8 µM) or 0.243 (44 µM) together with a significance test. At 44 µM about 15% of codons end with one read or none, so the lowest values are floors (replicate rank correlation 0.74; 0.94 at 8.8 µM).

With A103N, the “selection coefficient against synonymous wild-type codons (log2)” value (“selection coefficient … (log2)” for short) reads like this: (methotrexate 8.8 µM) 0.0628 ± 0.059; (methotrexate 44 µM) 0.0952 ± 0.11.

Consider R119T, for which the “selection coefficient … (log2)” value runs as follows: (methotrexate 8.8 µM) 0.0864 ± 0.028; (methotrexate 44 µM) 0.0369 ± 0.041.

On to Q107K, for which the “selection coefficient … (log2)” value was 0.0169 ± 0.092 (methotrexate 8.8 µM) and 0.107 ± 0.096 (methotrexate 44 µM).

As for D205C, the “selection coefficient … (log2)” value (methotrexate 8.8 µM) was -0.259 ± 0.068 and the “selection coefficient … (log2)” value (methotrexate 44 µM) was -0.24 ± 0.072.

On to D205G, for which the “selection coefficient … (log2)” value is, setting by setting: (methotrexate 8.8 µM) -0.148 ± 0.06; (methotrexate 44 µM) -0.16 ± 0.091.

In the case of A131E, the “selection coefficient … (log2)” value was 0.00489 ± 0.029 (methotrexate 8.8 µM) and -0.0607 ± 0.029 (methotrexate 44 µM).

Regarding A131N, the “selection coefficient … (log2)” value is, setting by setting: (methotrexate 8.8 µM) -0.202 ± 0.047; (methotrexate 44 µM) 0.0628 ± 0.48.

Take A131S: the “selection coefficient … (log2)” value is, setting by setting: (methotrexate 8.8 µM) -0.113 ± 0.053; (methotrexate 44 µM) -0.129 ± 0.17.

Take E178N: the “selection coefficient … (log2)” value is -0.118 ± 0.075 (methotrexate 8.8 µM) and -0.206 ± 0.17 (methotrexate 44 µM).

Turning to L29H, the “selection coefficient … (log2)” value (methotrexate 8.8 µM) was found to be 0.277 ± 0.02 and the “selection coefficient … (log2)” value (methotrexate 44 µM) worked out at 0.227 ± 0.088.

R140S: the “selection coefficient … (log2)” value stood at 0.111 ± 0.04 (methotrexate 8.8 µM) and 0.118 ± 0.18 (methotrexate 44 µM).

Turning to R140P, the “selection coefficient … (log2)” value (methotrexate 8.8 µM) was -0.388 ± 0.1 and the “selection coefficient … (log2)” value (methotrexate 44 µM) is -0.127 ± 0.06.

In the case of S37D, the “selection coefficient … (log2)” value stood at 0.0797 ± 0.0029 (methotrexate 8.8 µM) and 0.199 ± 0.057 (methotrexate 44 µM).

For the variant A92F, the “selection coefficient … (log2)” value was -0.5 ± 0.072 (methotrexate 8.8 µM) and -0.327 ± 0.094 (methotrexate 44 µM).

On to G89Q, for which the “selection coefficient … (log2)” value reads like this: (methotrexate 8.8 µM) -0.0658 ± 0.022; (methotrexate 44 µM) 0.0143 ± 0.049.

Take R96Y: the “selection coefficient … (log2)” value was -0.367 ± 0.034 (methotrexate 8.8 µM) and -0.235 ± 0.018 (methotrexate 44 µM).

For the variant R96L, the “selection coefficient … (log2)” value by setting is: (methotrexate 8.8 µM) -0.508 ± 0.045; (methotrexate 44 µM) -0.098 ± 0.39.

For the variant R96N, the “selection coefficient … (log2)” value was -0.251 ± 0.075 (methotrexate 8.8 µM) and -0.188 ± 0.12 (methotrexate 44 µM).

S163I: the “selection coefficient … (log2)” value (methotrexate 8.8 µM) was -0.104 ± 0.012 and the “selection coefficient … (log2)” value (methotrexate 44 µM) is -0.158 ± 0.18.

Turning to S106G, the “selection coefficient … (log2)” value (methotrexate 8.8 µM) came to 0.0409 ± 0.07 and the “selection coefficient … (log2)” value (methotrexate 44 µM) amounted to 0.547 ± 0.48.

On to P186T, for which the “selection coefficient … (log2)” value was -0.197 ± 0.11 (methotrexate 8.8 µM) and -0.269 ± 0.13 (methotrexate 44 µM).

Consider N77D, for which the “selection coefficient … (log2)” value reads like this: (methotrexate 8.8 µM) -0.276 ± 0.054; (methotrexate 44 µM) -0.133 ± 0.1.

Consider V120L, for which the “selection coefficient … (log2)” value is -0.132 ± 0.036 (methotrexate 8.8 µM) and -0.155 ± 0.13 (methotrexate 44 µM).

In the case of G188V, the “selection coefficient … (log2)” value was -0.164 ± 0.05 (methotrexate 8.8 µM) and -0.246 ± 0.058 (methotrexate 44 µM).

As to L86K, the “selection coefficient … (log2)” value (methotrexate 8.8 µM) worked out at 0.082 ± 0.035 and the “selection coefficient … (log2)” value (methotrexate 44 µM) amounted to 0.0316 ± 0.065.

As to L86P, the “selection coefficient … (log2)” value (methotrexate 8.8 µM) was determined as 0.0299 ± 0.056 and the “selection coefficient … (log2)” value (methotrexate 44 µM) was 0.0196 ± 0.13.

L86F: the “selection coefficient … (log2)” value runs as follows: (methotrexate 8.8 µM) -0.233 ± 0.03; (methotrexate 44 µM) -0.0781 ± 0.1.

On to L128C, for which the “selection coefficient … (log2)” value is -0.568 ± 0.1 (methotrexate 8.8 µM) and -0.341 ± 0.051 (methotrexate 44 µM).

As to Q4C, the “selection coefficient … (log2)” value is -0.0888 ± 0.092 (methotrexate 8.8 µM) and -0.0945 ± 0.11 (methotrexate 44 µM).

As for K73A, the “selection coefficient … (log2)” value was -0.0478 ± 0.065 (methotrexate 8.8 µM) and -0.0339 ± 0.058 (methotrexate 44 µM).

On to P71E, for which the “selection coefficient … (log2)” value runs as follows: (methotrexate 8.8 µM) 0.223 ± 0.04; (methotrexate 44 µM) 0.332 ± 0.05.

P71L: the “selection coefficient … (log2)” value is, setting by setting: (methotrexate 8.8 µM) 0.274 ± 0.045; (methotrexate 44 µM) 0.364 ± 0.034.

For P71S, the “selection coefficient … (log2)” value is, setting by setting: (methotrexate 8.8 µM) 0.329 ± 0.033; (methotrexate 44 µM) 0.414 ± 0.042.

Take P71C: the “selection coefficient … (log2)” value turned out to be 0.319 ± 0.026 (methotrexate 8.8 µM) and 0.344 ± 0.082 (methotrexate 44 µM).

As to M57F, the “selection coefficient … (log2)” value reads like this: (methotrexate 8.8 µM) -0.155 ± 0.027; (methotrexate 44 µM) -0.117 ± 0.11.

With M57L, the “selection coefficient … (log2)” value (methotrexate 8.8 µM) was -0.349 ± 0.12 and the “selection coefficient … (log2)” value (methotrexate 44 µM) was -0.211 ± 0.098.

S64T: the “selection coefficient … (log2)” value (methotrexate 8.8 µM) was -0.196 ± 0.075 and the “selection coefficient … (log2)” value (methotrexate 44 µM) was -0.14 ± 0.15.

Take A143W: the “selection coefficient … (log2)” value runs as follows: (methotrexate 8.8 µM) 0.0273 ± 0.0079; (methotrexate 44 µM) 0.0969 ± 0.057.

On to A143V, for which the “selection coefficient … (log2)” value reads like this: (methotrexate 8.8 µM) -0.0163 ± 0.062; (methotrexate 44 µM) 0.0808 ± 0.095.

On to A143D, for which the “selection coefficient … (log2)” value (methotrexate 8.8 µM) is -0.578 ± 0.074 and the “selection coefficient … (log2)” value (methotrexate 44 µM) is -0.232 ± 0.093.

Consider T14C, for which the “selection coefficient … (log2)” value (methotrexate 8.8 µM) was -0.289 ± 0.079 and the “selection coefficient … (log2)” value (methotrexate 44 µM) is -0.203 ± 0.18.

In the case of L167G, the “selection coefficient … (log2)” value is, setting by setting: (methotrexate 8.8 µM) -0.0316 ± 0.037; (methotrexate 44 µM) -0.0797 ± 0.089.

Regarding K171R, the “selection coefficient … (log2)” value runs as follows: (methotrexate 8.8 µM) -0.108 ± 0.046; (methotrexate 44 µM) -0.0697 ± 0.098.

For K171F, the “selection coefficient … (log2)” value runs as follows: (methotrexate 8.8 µM) -0.276 ± 0.069; (methotrexate 44 µM) -0.315 ± 0.086.

As for K189S, the “selection coefficient … (log2)” value is, setting by setting: (methotrexate 8.8 µM) -0.105 ± 0.039; (methotrexate 44 µM) -0.103 ± 0.073.

On to G124R, for which the “selection coefficient … (log2)” value runs as follows: (methotrexate 8.8 µM) -0.532 ± 0.18; (methotrexate 44 µM) 0.0121 ± 0.19.

On to Y93H, for which the “selection coefficient … (log2)” value is -0.0327 ± 0.072 (methotrexate 8.8 µM) and -0.0265 ± 0.086 (methotrexate 44 µM).

Consider L15M, for which the “selection coefficient … (log2)” value runs as follows: (methotrexate 8.8 µM) 0.177 ± 0.016; (methotrexate 44 µM) 0.141 ± 0.068.

For L15N, the “selection coefficient … (log2)” value turned out to be 0.279 ± 0.041 (methotrexate 8.8 µM) and 0.288 ± 0.11 (methotrexate 44 µM).

Consider S81K, for which the “selection coefficient … (log2)” value by setting is: (methotrexate 8.8 µM) -0.685 ± 0.068; (methotrexate 44 µM) -0.225 ± 0.056.

Regarding S81A, the “selection coefficient … (log2)” value runs as follows: (methotrexate 8.8 µM) -0.259 ± 0.11; (methotrexate 44 µM) -0.23 ± 0.084.

With S81I, the “selection coefficient … (log2)” value runs as follows: (methotrexate 8.8 µM) -0.618 ± 0.072; (methotrexate 44 µM) -0.227 ± 0.057.

As for S81H, the “selection coefficient … (log2)” value is, setting by setting: (methotrexate 8.8 µM) -0.263 ± 0.082; (methotrexate 44 µM) -0.129 ± 0.04.

Take D110W: the “selection coefficient … (log2)” value by setting is: (methotrexate 8.8 µM) 0.207 ± 0.082; (methotrexate 44 µM) 1.28 ± 0.1.

T61L: the “selection coefficient … (log2)” value (methotrexate 8.8 µM) was -0.501 ± 0.084 and the “selection coefficient … (log2)” value (methotrexate 44 µM) was -0.33 ± 0.088.

Regarding Q164R, the “selection coefficient … (log2)” value was -0.0808 ± 0.066 (methotrexate 8.8 µM) and -0.151 ± 0.061 (methotrexate 44 µM).

As for R137L, the “selection coefficient … (log2)” value by setting is: (methotrexate 8.8 µM) -0.101 ± 0.04; (methotrexate 44 µM) -0.0978 ± 0.1.
